Reference: the supplement of paper PMC3334620
Over roughly 33,000 sequences, “E-score (-0.5 to 0.5)” has its median near -0.011; the highest 2% begin near 0.28. The list shows a part of the results.

Molecular target: T1, Gcr1 (UniProt P07261)
T1 sequence: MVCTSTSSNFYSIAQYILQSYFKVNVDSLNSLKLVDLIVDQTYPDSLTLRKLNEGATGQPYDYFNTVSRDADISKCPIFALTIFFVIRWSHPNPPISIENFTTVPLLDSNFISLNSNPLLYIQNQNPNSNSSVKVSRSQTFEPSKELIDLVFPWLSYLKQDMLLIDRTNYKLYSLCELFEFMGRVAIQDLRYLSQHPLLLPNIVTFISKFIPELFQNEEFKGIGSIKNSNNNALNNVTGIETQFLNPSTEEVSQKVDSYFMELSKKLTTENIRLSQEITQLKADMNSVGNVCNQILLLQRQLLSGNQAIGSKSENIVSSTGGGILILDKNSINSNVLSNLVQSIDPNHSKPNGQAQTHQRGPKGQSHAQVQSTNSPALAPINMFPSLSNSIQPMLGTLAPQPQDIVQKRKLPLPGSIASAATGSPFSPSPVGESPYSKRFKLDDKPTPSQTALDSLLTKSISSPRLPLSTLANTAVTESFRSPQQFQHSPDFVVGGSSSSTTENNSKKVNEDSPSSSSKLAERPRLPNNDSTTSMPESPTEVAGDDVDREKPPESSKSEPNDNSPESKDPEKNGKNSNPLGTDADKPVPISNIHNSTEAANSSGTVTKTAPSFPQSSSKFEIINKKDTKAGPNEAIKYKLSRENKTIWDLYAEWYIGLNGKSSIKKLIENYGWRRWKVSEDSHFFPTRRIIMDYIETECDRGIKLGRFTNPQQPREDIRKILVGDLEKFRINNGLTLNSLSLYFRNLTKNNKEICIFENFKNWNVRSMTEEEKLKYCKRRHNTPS
Assay: PBM E-score (8-mer binding enrichment) (E-score (-0.5 to 0.5)); higher = stronger / more preferred TF binding; most listed sequences are background and not binding sites
Conditions: protein concentration: 100 nM; construct: GST-full length
Procedure: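 Universal 'all 10-mer' protein binding microarrays (Agilent AMADID 015681) probed with GST-tagged S. cerevisiae TFs (full-length or DBD) made by in vitro transcription/translation (PURExpress), about 100-200 nM. Bound TF was detected with fluorescent anti-GST. Each ungapped 8-mer (which stands for itself and its reverse complement) is scored by the PBM enrichment score (E-score), a modified Wilcoxon-Mann-Whitney statistic from -0.5 to +0.5, computed with the Universal PBM Analysis Suite. Scale: above 0.35 generally sequence-specific binding.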

Sequence | PBM E-score
GTCGGTTA | -0.058
GGGCGAAC | -0.0105
CGGGCGAA | -0.213
CACCGGAC | -0.0141
ACATTGGC | -0.0383
ACCGTCGT | -0.183
CATCTTCC | 0.0808
AACCATGA | -0.00643
CAGGTTAC | -0.157
CAGGATGG | -0.132
TAGCGATA | -0.0939
AGGCGAAA | -0.108
CGGAGAGA | -0.0586
ACACACTA | -0.057
AAGGAAAC | -0.0301
ACCCAGTG | -0.0145
GACGGGAC | -0.151
GAATCCAA | 0.309
ATCCAACG | 0.06
AATGCATT | -0.147
CAACCGGA | 0.206
CAATCTAG | 0.127
AAGCCCAA | 0.141
CACAGAGA | -0.0375

Sequence | PBM E-score
GAATATTC | -0.0608
GCGTGACC | -0.139
CACTAACG | 0.00491
CCTTCCTC | 0.022
CGGTAAAA | 0.08
GACCTGCC | -0.164
AGTATTAC | 0.0553
ACTCGGGA | 0.132
CGATCCGC | -0.215
AACGTGGC | -0.104
CAGGAGTC | 0.219
CACAAGGC | -0.161
CCTGGCTA | 0.0412
AGAAATGG | 0.0246
CCCTCAGG | -0.178
ATGATGTC | 0.00482
ACTGAAAT | 0.00378
AGTTACTG | 0.0791
AATGTCCG | -0.0101
AGACTGGA | 0.224
CACATGTG | -0.129
CATCAACA | 0.015
TGAGCTCA | -0.277
ATGAAGAC | -0.102

Sequence | PBM E-score
TAGCTGGA | 0.129
AACTTTAA | 0.0795
AAGGATCA | -0.0152
GAATGTCC | -0.215
ATGCGTGC | 0.0119
AAAAATTA | 0.2
CTGTCACA | -0.12
GAAAGCCA | -0.0646
ATGAGTTG | 0.0239
CTCGTGGA | -0.0317
GAGCGTGA | -0.105
ATAAGGCA | 0.0435
CGTACGCC | 0.0348
GGGAGCTA | 0.00402
CGAAAAGA | 0.0924
CAATCAAG | 0.00335
CACAGTTA | 0.119
AAATCGCC | 0.062
ATGTAGAA | -0.0324
CGTACACA | 0.0337
TGCGATAA | 0.0278
ATGTCACC | 0.168
CGTGTCTC | -0.178
AAGCAGAT | -0.03

Sequence | PBM E-score
ACGATACC | 0.131
CGTTGCTC | -0.0455
ATCCCGCG | 0.107
GTTGTAGA | -0.0206
ACTAGGCG | 0.199
CGAATCGA | 0.137
TGCAAACA | -0.126
AACGGTGC | 0.139
ACTGGGCC | -0.135
CGAACCTC | -0.0886
CAGCCTTA | -0.0585
AAGTGGAA | 0.41
CAATAATA | 0.00699
CCCAAACC | 0.118
ACCGCACC | 0.0134
AACCATAA | 0.167
TAGAAGCA | 0.0346
AGGTGTTG | -0.0564
TCATTCAA | 0.00751
GGAGTGAA | 0.0541
GTGTCGGA | 0.0513
AGCTGAAG | -0.0873
